# From paper PMC4336329 (PLoS ONE, 2015)
# The campaign covered roughly 310,000 compounds. About 2,200 (0.71%) showed an effect of 50% or more. The effect is printed as a negative number. Some of the results follow.
# Target: human ether-à-go-go-related gene (hERG) potassium channel (human, UniProt Q12809)
# Assay: primary screen, population patch clamp on CHO cells stably expressing hERG
# human ether-à-go-go-related gene (hERG) potassium channel, sequence (Q12809 whole entry, looked up): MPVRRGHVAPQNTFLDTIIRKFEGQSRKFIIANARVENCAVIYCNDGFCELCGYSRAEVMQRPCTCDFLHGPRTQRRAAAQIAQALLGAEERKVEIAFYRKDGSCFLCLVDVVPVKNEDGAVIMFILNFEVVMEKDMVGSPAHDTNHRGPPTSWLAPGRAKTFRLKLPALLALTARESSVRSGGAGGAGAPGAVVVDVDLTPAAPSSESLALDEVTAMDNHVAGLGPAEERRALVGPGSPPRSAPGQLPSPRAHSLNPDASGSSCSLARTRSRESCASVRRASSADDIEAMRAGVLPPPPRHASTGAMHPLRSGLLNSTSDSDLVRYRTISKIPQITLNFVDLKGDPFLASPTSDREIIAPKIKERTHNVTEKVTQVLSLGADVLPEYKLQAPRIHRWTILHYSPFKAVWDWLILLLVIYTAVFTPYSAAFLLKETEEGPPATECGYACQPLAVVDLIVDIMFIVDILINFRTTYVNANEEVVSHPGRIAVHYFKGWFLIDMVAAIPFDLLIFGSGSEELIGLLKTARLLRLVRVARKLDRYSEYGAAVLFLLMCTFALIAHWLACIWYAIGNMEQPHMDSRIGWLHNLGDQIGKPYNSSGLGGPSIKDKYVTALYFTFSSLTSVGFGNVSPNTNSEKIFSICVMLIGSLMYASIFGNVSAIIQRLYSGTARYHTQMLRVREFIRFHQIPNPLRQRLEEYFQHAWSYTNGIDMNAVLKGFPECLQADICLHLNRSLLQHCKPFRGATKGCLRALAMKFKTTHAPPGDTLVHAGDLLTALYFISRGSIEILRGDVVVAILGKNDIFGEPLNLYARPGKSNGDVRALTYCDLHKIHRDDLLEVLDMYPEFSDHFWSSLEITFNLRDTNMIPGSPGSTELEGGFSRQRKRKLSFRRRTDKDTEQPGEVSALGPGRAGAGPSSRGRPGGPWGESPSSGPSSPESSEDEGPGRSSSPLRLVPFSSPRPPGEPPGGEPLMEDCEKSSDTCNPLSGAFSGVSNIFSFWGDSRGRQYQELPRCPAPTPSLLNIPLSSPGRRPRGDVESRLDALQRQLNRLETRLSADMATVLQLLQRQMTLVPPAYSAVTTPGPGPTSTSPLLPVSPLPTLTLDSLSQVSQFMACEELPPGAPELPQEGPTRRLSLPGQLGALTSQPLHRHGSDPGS
row,SMILES,"hERG current change (%, negative = inhibition) at 1uM [%]"
1,COc1ccccc1C(=O)NC(CCSC)C(=O)NNC(=O)c1csc(N2CCOCC2)n1 (stereo not drawn),12.2
2,Cc1occc(=O)c1O,13.9
3,CCN(CC)S(=O)(=O)c1ccc(C(=O)OCC(=O)N2CCN(C(=O)c3ccco3)CC2)cc1,-11.3
4,CCC(c1nnc(SCC(=O)NC23CC4CC(CC(C4)C2)C3)o1)N(C)C (stereo not drawn),10.4
5,CC1CN(C(=O)c2ccccc2Sc2ccccc2C#N)CC(C)O1 (stereo not drawn),3.47
6,COc1cccc(N=Cc2c(O)c3ccccc3oc2=O)c1,24.2
7,CCN(CC)c1ccc(C=C2C(=O)NC(=S)NC2=O)cc1,8.93
8,CC(=O)Nc1ccc(S(=O)(=O)Nc2ccc3c(c2)n(C)c(=O)n3C)c(C)c1,14
9,Cc1cc(Cl)ccc1OCCCC(=O)NN,7.49
10,COc1ccc(OC)c(Nc2nc(NCCC(C)C)nc(N)c2[N+](=O)[O-])c1,11.5
11,COC(=O)c1ccccc1NC(=O)C1CCN(S(=O)(=O)c2cc(C)ccc2OC)CC1,4.35
12,CCNC(=O)CC1C(=O)N(c2ccccc2)C(=O)N1CCOC (stereo not drawn),2.57
13,Cc1cccc(NC(=O)CNC(=O)N2CC(=O)Nc3ccccc32)c1C,25.5
14,Cc1sc2nc(CSc3ccccc3)nc(N3CCC(C(N)=O)CC3)c2c1C,-0.683
15,Cc1c(C(c2ccc(N(C)C)cc2)c2c(C)n(C)n(-c3ccccc3)c2=O)c(=O)n(-c2ccccc2)n1C,15.4
16,COc1ccc(N2CCN(C(=O)COC(=O)COc3cc(C)cc(C)c3)CC2)cc1,-2.01
17,Clc1ccc(C2[C@H]3CN(Cc4cccnc4)[C@H](c4ccccc4)C34CC2(c2cccnc2)C4)cn1 (stereo partly drawn),3.18
18,O=C(Nc1ccc(Cl)cc1)N1CCN(c2ccccc2)CC1,9.17
19,COC(=O)C(Cc1cnc(Cl)s1)(C(=O)OC)c1ccccc1[N+](=O)[O-],16.7
20,Cc1cnc(NC(=O)c2cccc(S(=O)(=O)N3CCOCC3)c2)s1,8.14
21,O=C(NC1CCCCC1)C(c1ccncc1)N(C(=O)Cc1cccs1)c1ccccc1 (stereo not drawn),15.5
22,O=C(NC(=S)Nc1nc2ccccc2s1)c1ccco1,14.9

row,SMILES,"hERG current change (%, negative = inhibition) at 1uM [%]"
1,O=C(O)C1CCN(c2ccc([N+](=O)[O-])cc2[N+](=O)[O-])CC1,6.97
2,O=C1c2cccc3cccc(c23)C(=O)N1CCCCCc1n[nH]c(=S)o1,-6.54
3,O=S(=O)(c1ccc2nc(N3CCN(c4ccc(F)cc4)CC3)ccc2c1)N1CCCCC1,9.77
4,CC(C)OCCCNC(=O)C1CC(=O)N(CCc2ccc(F)cc2)C1 (stereo not drawn),10.6
5,S=C(NC1CC1)N1CCCc2ccccc21,3.32
6,O=C(CSc1nnc(CNC(=O)c2ccc(F)cc2)o1)NCCc1ccccc1,15.2
7,Cc1cccc(-c2noc(CNC(=O)c3ccc4c(c3)OCO4)n2)c1,2.34
8,O=C(C1CCN(Cc2cn[nH]c2-c2ccc(F)cc2F)CC1)N1CCOCC1,12.1
9,CC(Oc1ccc(Br)cc1Br)C(=O)Nc1cccnc1 (stereo not drawn),13.8
10,CCCSCCCNC(=O)c1ccc(NC(=O)C2=CSCCO2)cc1,6.09
11,Cc1cc(Cl)c(S(=O)(=O)Nc2ccccn2)cc1OCC(N)=O,-30.4
12,CC(C)CC(=O)Nc1cc([N+](=O)[O-])ccc1Cl,1.28
13,Cc1ccc(S(=O)(=O)/N=C(\c2ccccc2)N(C)S(=O)(=O)c2ccccc2)cc1,5.65
14,COc1cc(C=O)c(Br)cc1OCc1ccc(C)cc1,8.93
15,O=C(NCc1ccccc1)c1cccc(COc2ccc3c(c2)CCC3)c1,-1.71
16,COCCCN(C(=O)CSCC(=O)Nc1cccc(C)c1)c1c(N)n(Cc2ccccc2)c(=O)[nH]c1=O,18.4
17,Cc1cccc(NC(=S)NC2CC3CCCC(C2)N3Cc2ccco2)c1 (stereo not drawn),4.44
18,Fc1cc(F)c2nc(N3CCCC3)sc2c1,16
19,COCCN(C(=O)CSCC(=O)Nc1cccc(C)c1)c1c(N)n(Cc2ccccc2)c(=O)[nH]c1=O,8.65
20,COc1cc(/C=C(/C#N)c2nc3ccccc3[nH]2)ccc1OC(=O)c1ccco1,7.41
21,O=C(COc1ccc(-c2nnco2)cc1)NCc1ccccc1Cl,1.47
22,CC(C)C[C@H](NC(=O)C1CC(=O)N(c2ccc3c(c2)OCO3)C1)C(=O)NCc1ccco1 (stereo partly drawn),5.04

row,SMILES,"hERG current change (%, negative = inhibition) at 1uM [%]"
1,O=C(NCc1ccccn1)c1ccc(COc2ccc(Cl)cc2)o1,2.53
2,CC(=O)OCc1cc2cc(C)ccc2[nH]c1=O,12.9
3,Cc1cccc(C)c1OCC(=O)NNC(=S)NC(=O)C1CC1,7.77
4,Cc1cc(Cl)ccc1OC(C)C(=O)N1CCCN(C(=O)C(C)Oc2ccc(Cl)cc2C)CC1 (stereo not drawn),12.1
5,Cc1nc(C)c(Oc2ccc(Cl)cc2Cl)c(=O)[nH]1,10.7
6,O=C(C1CCCCC1)N1CCN(S(=O)(=O)c2ccc(Br)cc2)CC1,7.29
7,Cc1cc(CNC(=O)C2(C(F)(F)F)C/C(=C\CCO)CCCO2)nn1C (stereo not drawn),10.6
8,CCCNc1nc(C)cc(-c2cc(-c3ccccc3)on2)n1,13
9,COc1ccc(CC2(CO)CCN(Cc3ccc(NC(C)=O)cc3)CC2)cc1,-6.86
10,COc1ccc(C(=O)N2CCCCC2)cc1S(=O)(=O)Nc1ccccc1,6.97
11,Cc1ccc(C(=O)NNC(=O)CCC(=O)NCc2ccccc2)cc1Br,10.3
12,CC(=O)N(CN1C(=O)c2ccccc2C1=O)c1ccc2c(c1)oc1ccccc12,9.19
13,CSCC[C@H](NC(=O)Nc1ccccc1C)C(=O)O,5.67
14,COc1cc(SC#N)ccc1N=Cc1c(C)[nH]n(-c2ccc(Cl)cc2)c1=O,-1.2
15,CCCCn1c(=O)c(C(=O)NCc2ccccc2OC)c(O)c2ccccc21,4.46
16,O=P(OC1CCCCC1)(OC1CCCCC1)C(Nc1ccccc1)c1cccnc1 (stereo not drawn),5.86
17,O=C(CCCOc1ccccc1)NCc1ccco1,-14.4
18,CCOC(=O)C1(CCOC)CCN(C2C3CC4CC(C3)CC2C4)CC1 (stereo not drawn),8.54
19,CCCn1nnnc1NCc1ccc(CC)cc1,13.7
20,CCOc1ccc(C2=Nc3ccc(Br)cc3C(c3ccc(N4CCOCC4)cc3)=NN2)cc1,16.2
21,CCOc1ccc(Nc2cc(C)c3ccccc3n2)cc1,13.2
22,CC(=O)c1nn(-c2cccc(Br)c2)cc1C(=O)c1ccc2ccccc2c1,9.62

row,SMILES,"hERG current change (%, negative = inhibition) at 1uM [%]"
1,COc1cc2c(cc1OC)C(C(=O)NC1CC1)C1c3ccccc3CCN1C2=O (stereo not drawn),3.84
2,O=C(CCc1nnc(CCCCc2ccccc2)o1)NCCn1cccn1,4.99
3,Cc1oc2cc3oc(=O)c(CCC(=O)N[C@H](C(=O)O)C(C)C)c(C)c3cc2c1C,11.7
4,Cc1nc(SCC(=O)Nc2c(C)n(C)n(-c3ccccc3)c2=O)c(C#N)c(C)c1C,-12.9
5,COc1ccc(C2CC(c3ccccc3)=NN2C(=O)COC(=O)c2cccc(S(=O)(=O)N3CCOCC3)c2)cc1 (stereo not drawn),14.9
6,Cc1ccccc1CN1CCN(Cc2ccccc2C(F)(F)F)CC1.O=C(O)C(=O)O,1.7
7,CCc1[nH]c(=O)c(C#N)c2c1COC(C)(C)C2,-0.316
8,OCCNc1nc(-c2ccccc2)c2ccccc2n1,-1.18
9,N#CCC(CNc1ncc(C(F)(F)F)cc1Cl)OC(=O)c1cccc(C(F)(F)F)c1 (stereo not drawn),-1.12
10,Cc1nc(N2CCN(c3ccccn3)CC2)c2c(C)c(C(=O)Nc3ccc(F)cc3)sc2n1,-21
11,COC(=O)Nc1nc2c(C)cccc2s1,-4.56
12,NC(=O)c1cc(S(=O)(=O)Nc2cccc(Cl)c2)cs1,14.6
13,Nc1cccc(S(=O)(=O)c2cccc(N)c2)c1,0.326
14,Cc1ccc(CNC2=NCCCCC2)n1C,5.96
15,Nc1cc(C(F)(F)F)ccc1Nc1ccccc1,14
16,O=C1NC(c2ccc(-c3ccccc3[N+](=O)[O-])o2)C(C(=O)c2ccc(Cl)cc2)C(O)(C(F)(F)F)N1 (stereo not drawn),13.6
17,COc1ccc(/C=C/C(=O)OCC(=O)N2CCCC2)c(OC)c1,15.8
18,COc1ccc(OC(=O)COc2cc(C)ccc2C)cc1,8.15
19,Cn1c2c(c(=O)n(C)c1=O)C1c3ccccc3OCC1C(C)(C)O2 (stereo not drawn),3.14
20,O=C(c1ccc(Cn2cc(Br)cn2)o1)N1N=C(C(F)F)CC1(O)C(F)F (stereo not drawn),4.16
21,N#C/C(=C\c1c(N2CCCCC2)nc2ccccn2c1=O)S(=O)(=O)c1ccccc1,6.11
